Out of some 310,000 compounds screened, about 2,200 (0.71%) showed an effect of 50% or more. The effect is printed as a negative number. Some of the results follow.
These molecules were tested against human ether-à-go-go-related gene (hERG) potassium channel (human, UniProt Q12809) (assay: primary screen, population patch clamp on CHO cells stably expressing hERG).
Chain of human ether-à-go-go-related gene (hERG) potassium channel (Q12809 whole entry, looked up): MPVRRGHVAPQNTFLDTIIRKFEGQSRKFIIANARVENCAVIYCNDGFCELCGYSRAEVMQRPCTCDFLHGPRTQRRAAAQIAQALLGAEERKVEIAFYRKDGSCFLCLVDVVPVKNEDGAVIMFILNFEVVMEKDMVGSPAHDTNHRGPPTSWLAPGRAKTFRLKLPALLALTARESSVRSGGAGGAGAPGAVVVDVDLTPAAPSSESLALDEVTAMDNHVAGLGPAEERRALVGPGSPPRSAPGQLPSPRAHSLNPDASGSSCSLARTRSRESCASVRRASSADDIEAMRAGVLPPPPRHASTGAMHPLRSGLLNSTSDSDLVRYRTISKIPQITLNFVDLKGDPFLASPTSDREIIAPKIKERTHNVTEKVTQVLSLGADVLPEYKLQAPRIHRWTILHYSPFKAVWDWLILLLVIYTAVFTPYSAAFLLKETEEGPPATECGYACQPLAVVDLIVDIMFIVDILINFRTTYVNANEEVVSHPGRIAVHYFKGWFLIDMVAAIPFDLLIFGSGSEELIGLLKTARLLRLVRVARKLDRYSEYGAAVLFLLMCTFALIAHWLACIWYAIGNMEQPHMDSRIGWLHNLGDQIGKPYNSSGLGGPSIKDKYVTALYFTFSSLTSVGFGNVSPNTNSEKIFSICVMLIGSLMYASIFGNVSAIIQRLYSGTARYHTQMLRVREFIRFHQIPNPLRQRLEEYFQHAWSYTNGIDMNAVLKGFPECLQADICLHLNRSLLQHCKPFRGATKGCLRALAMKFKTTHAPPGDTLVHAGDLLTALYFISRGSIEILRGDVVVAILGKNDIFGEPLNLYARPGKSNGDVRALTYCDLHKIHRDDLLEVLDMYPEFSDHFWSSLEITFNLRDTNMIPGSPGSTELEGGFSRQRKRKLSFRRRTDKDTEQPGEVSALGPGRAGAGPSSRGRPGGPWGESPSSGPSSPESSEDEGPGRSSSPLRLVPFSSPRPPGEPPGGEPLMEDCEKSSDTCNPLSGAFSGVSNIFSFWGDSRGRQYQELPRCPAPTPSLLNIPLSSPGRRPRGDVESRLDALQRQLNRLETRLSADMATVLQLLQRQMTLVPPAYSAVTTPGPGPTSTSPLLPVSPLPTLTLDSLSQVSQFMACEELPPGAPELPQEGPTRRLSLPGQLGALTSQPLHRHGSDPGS

| SMILES | hERG current change (%, negative = inhibition) at 1uM [%] |
| --- | --- |
| COC(=O)c1cc2ccsc2n1Cc1nc(-c2ccc(Cl)cc2)oc1C | 10.5 |
| NC(=O)COC(=O)C1CSC2(c3ccc(F)cc3)CCC(=O)N12 (stereo not drawn) | 18.4 |
| O=C(NCCc1c[nH]c2ccccc12)c1cc2ccccc2oc1=O | 8.75 |
| Clc1ccc(OCc2nn3c(C4CCCCC4)nnc3s2)cc1 | 11.5 |
| O=[N+]([O-])c1cccc(-c2csc(N/N=C/c3cccc(O)c3)n2)c1 | 2.64 |
| Cc1c(C)c2ccc(OCC(=O)c3ccccc3)cc2oc1=O | 23.3 |
| CC(=O)Nc1ccc(-c2ccc(NC(C)=O)c(O)c2)cc1O | 13 |
| COc1ccc(CN2CCNC(=O)C2CC(=O)NC2CCCCCC2)c(F)c1 (stereo not drawn) | 3.97 |
| O=C(COC(=O)c1ccc(CNS(=O)(=O)c2ccc(F)c(Cl)c2)cc1)NC1CCCCCCC1 | 14 |
| CCS(=O)(=O)N1CCC(C(=O)OCC(=O)c2ccc(Br)cc2)CC1 | 7.1 |
| CC(NC(=O)C1CCC1)c1ccc2c(c1)OCO2 (stereo not drawn) | -3.43 |
| O=C(COc1ccccc1)Nc1ccccc1C(=O)NCc1ccco1 | 6.35 |
| COC(=O)c1ccc(CSc2nc3ccccc3s2)o1 | 2.75 |
| Cc1cc(C)nc(SCC(=O)Nc2ccc(N3CCOCC3)c(Cl)c2)n1 | 5.02 |
| COc1ccc(/C=C/C(=O)Nc2ccccc2C)cc1S(=O)(=O)N1CCOCC1 | 5.61 |
| Cc1ccc(NC(=O)CSc2nnc(CNC(=O)c3ccccc3F)o2)cc1 | 8.09 |
| CC(=O)Nc1ccc(S(=O)(=O)N(C)CC(=O)OCC(=O)N2CC(C)OC(C)C2)cc1 (stereo not drawn) | 10.7 |
| CCOC(=O)C[N+](C)(C)CCOC1CC2CCC1(C)C2(C)C.[Cl-] (stereo not drawn) | 12.2 |
| S=C(Nc1ccc(Cl)cc1)N(CCCN1CCOCC1)Cc1ccco1 | -8.98 |

| SMILES | hERG current change (%, negative = inhibition) at 1uM [%] |
| --- | --- |
| Cc1ccc(SCc2[nH]nc3c2C(c2cccnc2)C(C#N)=C(N)O3)cc1 (stereo not drawn) | 7.49 |
| COc1ccc(NC(=O)CCC(=O)Nc2nnc(C3CCCCC3)s2)cc1 | 14.5 |
| CCOc1ccccc1NC(=O)N1C2CCCC1CC(NC(=O)C1CC1)C2 (stereo not drawn) | 12.7 |
| COCCCNC(=O)c1c[nH]c2ccc(S(=O)(=O)N3CCC(C)CC3)cc2c1=O | 3.78 |
| CNS(=O)(=O)c1cn(CC(=O)NCc2ccccc2OC)cc1S(=O)(=O)NC | 4.3 |
| CN(Cc1ccc(F)cc1)C(=O)c1ccc(NC(=O)CC2SC(N3CCCC3)=NC2=O)cc1 (stereo not drawn) | 8.82 |
| Cc1ccc2nc(NC(=O)Cn3nc(C)c([N+](=O)[O-])c3C)sc2c1 | 9.4 |
| O=C(Nc1nc(-c2cccnc2)cs1)c1ccccc1F | 6.89 |
| O=C1CCCN1c1ccc(S(=O)(=O)N2CCN(c3ccccc3)CC2)cc1 | 16.8 |
| CNc1ccc(/C=C(\CCC(=O)O)c2nc3ccccc3s2)cc1[N+](=O)[O-] | 2.57 |
| O=C(Nc1ccc(S(=O)(=O)N2CCCC2)cc1)c1ccc(CN2CCOCC2)cc1 | 0.61 |
| CCCCc1nc2sc3c(=O)[nH]cnc3c2c2c1CCCC2 | 8.77 |
| O=C(Nc1cccc(-c2cc3ccccc3oc2=O)c1)c1ccc(Br)o1 | 8.28 |
| Cc1cccc(N(CC(=O)O)CC(=O)O)c1 | -2.61 |
| Cc1sc(NC(=O)/C=C/c2ccc3c(c2)OCO3)nc1-c1ccccc1 | 8.16 |
| C/C(=N\NC(=O)c1ccc2c(c1)OCO2)c1ccc(NS(C)(=O)=O)cc1 | 11.6 |
| O=C(CCNC(=O)c1ccc([N+](=O)[O-])cc1)Nc1ccc(F)cc1F | -4.9 |
| Cc1cc2ccccc2n1CCNC(=O)C(C)(C)C | 29 |
| O=C(NCC1CCCO1)C1CC(=O)N(c2ccc(Cl)cc2)C1 (stereo not drawn) | -1.78 |

| SMILES | hERG current change (%, negative = inhibition) at 1uM [%] |
| --- | --- |
| Cc1nnsc1C(=O)Nc1cc(Cl)ccc1Cl | 13.9 |
| CCOC1Cc2ccccc2N(C(N)=O)c2ccccc21 (stereo not drawn) | 14.5 |
| Cc1ccc(NC(=O)CN(C)C(=O)c2cccc(S(=O)(=O)NCc3cccs3)c2)cc1 | -4.97 |
| Cc1ccc2nc(C)c(C(=O)NN=C3CCN(C)CC3)n2c1 | 16.2 |
| COc1ccc(-c2nc3ccccc3n2Cc2ccc(C)cc2)cc1 | 11.2 |
| Cc1ccc2[nH]c3c(=O)n(Cc4ccccn4)cnc3c2c1 | 7.99 |
| CCN(CC)C(=S)SC1CCCCN(C(=O)c2ccccc2)C1=O (stereo not drawn) | 10.3 |
| CN1CCN(CC(O)COCc2ccc3c(c2)OCO3)CC1.Cl (stereo not drawn) | 4.46 |
| CC1CCN(C(=O)CN(c2ccc(Cl)c(C(F)(F)F)c2)S(C)(=O)=O)CC1 | 2.79 |
| CN(CC(=O)Nc1ccc(Cl)c(C(F)(F)F)c1)C(=O)C1CCC1 | 4.62 |
| Cc1ccc(CCNC(=O)C2CCN(S(=O)(=O)c3c(C)nn(C)c3C)CC2)cc1 | 7.64 |
| Cc1cc(-c2ccccc2)cc(C)[n+]1Cc1ccccc1.[O-][Cl+3]([O-])([O-])[O-] | 6.49 |
| CC(=O)n1c(C=Nc2ccccc2)c(O)c2ccccc21 | 10.8 |
| COC(=O)CCCC1=CC2=C(c3ccccc3)C(=O)C(C)(OC(=O)C3CCCC3)C(=O)C2=CN1CCCCO (stereo not drawn) | 19.7 |
| C1CCN(Cc2nnnn2C2CCCC2)CC1 | 11.2 |
| NS(=O)(=O)c1ccc(NCc2ccccc2OCc2ccccc2F)cc1 | 5.57 |
| c1ccc(-c2nnc3ccc(N4CCCC4)nn23)cc1 | 12.2 |
| CN(C)c1cc(C(F)(F)F)nc(-c2ccccn2)n1 | 6.17 |
| CC(C)CC(=O)NC(=S)Nc1ccc(N2CCOCC2)c(Cl)c1 | 10.7 |

— paper PMC4336329 (PLoS ONE, 2015)
